The text below walks through data of the RNAGym collection of RNA variant scans (doi:10.7554/elife.90254).

Read counts are not given, so values of variants with three or more changes are uncertain.

B1: LINE1-mini (parent)
chain: GGCAGAGCUCAACACAGCGUGGCAAAGUGGCUGUGGCUAGACUGCC

Variants of B1 are the subject of this data set. Briefly: self-cleavage, relative activity (ratio to wild type); higher = more cleavage; in vitro, sequencing; the parent is a self-cleaving ribozyme.
Take GGGAGAACUCAACAAGGCGUGGCAAAGUGGCUGUGGCUAGACUGCC: the self-cleavage is 0.1.

With GGGAGAGCUCAACACAGAGUGGCAAAGUGGCUGUGGCUAGACACCC, the self-cleavage was found to be 0.08.

For GGGAUAGCUCAACACAGCGUGGCAACGUGGCUGUGGCUAGACUGCC, the self-cleavage came out at 0.07.

With GGGAGAGCUCAACACAGCGUGGAAAAGUGGCUGUGGCUAUACUGCC, the self-cleavage is 0.21.

Turning to GGGAGAGCUCAACAUGGCAUGGCAAAGUGGGUGUGGCUAGACUGCC, the self-cleavage is 0.17.

Take GGGAGAACUCAACAGAGCGUGGCAAAGUGGCUGUGGCUAGACUGCC: the self-cleavage came out at 0.31.

Take GGGAGAACCCAACCCAGCGUUGCAAAGUGGCUAAGGGUAGACUGCC: the self-cleavage amounted to 0.03.

Consider GGGAGAGCUCAACAGAGCGUGGCAAAGGGGCUGAGGGAAGAAUGCC, for which the self-cleavage came to 0.02.

On to GGGAUAGCUCAACACAGCGUGGCAAAGAGGCUGUGGCUAGACUGCC, for which the self-cleavage came to 0.16.

For GGGACAGCUCAACAGAGCGUGGCAAAGUGGCUGUGGCUAGACUGCC, the self-cleavage was determined as 0.05.

On to GGGAGAGCUCAACAAAGCGUGGCAAAGUGGCUGUCGCUAGACUGCC, for which the self-cleavage came to 0.02.

In the case of GGGACAACUCAACACAGCGUGGCAAAGUGGCUGUGGAUAGACUGCC, the self-cleavage is 0.59.

As for GGGACACCUCAACACUGCGUGGCACAGUGGGUGUGGCUAGACUCCC, the self-cleavage worked out at 0.

For the variant GGGAGAGCUCAACACAGUGUGGCAAAGUGGCUGUGGCUAUGCUGCC, the self-cleavage was found to be 0.03.

Turning to GGGAGAGCUCAAUACAGCGUGGCAAAGUGGCUGUAGCUAGACUGCC, the self-cleavage stood at 0.21.

Consider GGGAGAGCUCAACACAGCGUGGCAAAGUGGCUGUGGUUAGACCGCC, for which the self-cleavage was determined as 0.07.

As for GGGAGAGCUCAACACAGGGAGGCAAACUGGCUGUGGCUAGACUGCC, the self-cleavage amounted to 0.1.

Regarding GGGAGAGCUCAACACAGCGUGGUAAAGUGGCUGUGGCUAGACAGCC, the self-cleavage was 0.16.

As to GGGAGAGCUCAACACAGUGUGGCAAAGUGGCCUUGGCCAGACUGGC, the self-cleavage turned out to be 0.09.

GGGACAGUUCAACACAGCUUGGCAAAGUGGCUGUGGCUAUAUUGCC: the self-cleavage was 0.03.

For GGGAGAGCUUAACACAGCGUGGCAAAGUGGCUGUGGCUAGACUCCC, the self-cleavage was 0.13.

For the variant GGGAGAGCUCAAAACACCGUGGCAAAAUGGCUGUGGCUAGACUGCC, the self-cleavage came to 0.41.

For the variant GGGAGAGCUCAACACAGUGUGGGAAAGUGGCUGUGGCUAGACUGCA, the self-cleavage is 0.17.

As for GGGAGAGCUCAAAACAGCGUGGCAAAGCCGCUGUGGCUAGAAUGCC, the self-cleavage turned out to be 0.13.

GGGAUAGCUCCCCACAGCGUGGCAAAGUGGCUCUGGCUAGACUGCC: the self-cleavage came out at 0.07.

Regarding GGGAUAGCUCAACACAGCGUGGCAAAGUGGCUGUGGCUAGAAUGUC, the self-cleavage stood at 0.2.

Take GGGAGAGCUCAACACAGAGUGGCAAAGUUCCUAUGGCUAGACUGCC: the self-cleavage was 0.02.

For the variant GGGAGAGCUCAACACAGCGUGGCAAAGUGGCUGUGGGCGGACUGGC, the self-cleavage is 0.06.

As for GGGAGAGCUCAACACAGCGUGGCAAAGUGGAUUUGGCUAGACUGCC, the self-cleavage stood at 0.15.

In the case of GGGAUAGCUCAACACAGCGUGGCAAAGUGGCUGUGGCUAGACUGGC, the self-cleavage is 0.34.

Regarding GGGAGAGCUCAACACAGCGUGGCAAAGUGGAUGUGGCUAGAUUGCC, the self-cleavage is 0.14.

As for GGGAGAGCUCAACACAGUGUGGCAAAGUGGCUGCGGCUAGUCUGCC, the self-cleavage turned out to be 0.14.

With GGGAAAGAUCAACACAGCGUGACAAAGUGGCUGUGGCUAGACUGCG, the self-cleavage amounted to 0.12.

Regarding GGGAGAGCUCAACAUAGCGUGGCAAACUGGUUGUGGCUAGACUGCC, the self-cleavage came out at 0.53.

As to GGGAGAGCUCAACACAGAGUGACAAAGUGGCUGUGGCUAGACCGCC, the self-cleavage stood at 0.

For the variant GGGAGAGCUCAACAUAGCGUGGCAAAGCGGCUGUGGCUAGAUUGCC, the self-cleavage worked out at 0.28.

GGGAGAGCUCAACACAGCGUGGCAAAGUGGAUGUCGCUAGACUGCC: the self-cleavage was 0.02.

As to GGGAGAGCUCAAUACAGCCUGGCAAAGUGACUGUGGCUAGACUGCC, the self-cleavage worked out at 0.11.

Take GGGAGAGCUCAACACAGCGUGGUUAGGUGGCUGUGGAUAGACUGCC: the self-cleavage came out at 0.02.

Take GGGAGAGCUCAACAGAGCGUGGAAAAGUGGCUGUGGCCAGACUGCC: the self-cleavage stood at 0.04.

With GGGAGAGCUCAACAUAGCGAGGCAAAGUGGCUGUGGCUAGACUGCC, the self-cleavage is 0.16.

Regarding GGGAGAGCUCAACACAGUGUGGCAAAGUGGCUGUCGCUAGACUGCC, the self-cleavage is 0.11.

For the variant GGGAGAGCUCAACAAAGCGUGGCAAAUUGGCUGUGGCUAGAAUGCC, the self-cleavage is 0.07.

For GGGAAAGCUCAAGACAGCGUGGCAAAGCGGUUGUGGCUCGACUGCC, the self-cleavage worked out at 0.06.

With GGGAAAGCUCAACACAGCGUGGCAAAGUGGCUGUGGCUACACUGAC, the self-cleavage was 0.09.

GGGAAAGUUCAAAACAGCGUGGCAAAGUGGCUGUGGCUAGACUGCC: the self-cleavage amounted to 0.2.

Turning to GGGAGAGCUCAACACAGCGUGGGAAAGCGGCUGUGGCUAGACUGCC, the self-cleavage turned out to be 0.11.

For the variant GGGAGAGCUCAACACAGCGUGGCAAAGUGGGUGUGGCAAGACUGCC, the self-cleavage was found to be 0.04.

Regarding GGGAGAGCUCAACACAGCGUGGGAAAGUGGCUGAGGCUAGACUGCC, the self-cleavage is 0.16.

With GGGAUAGCUCAACACAGCGUUGCAAAGUGGCUUUGGCUAGACUGCC, the self-cleavage was 0.06.

GGGAGAGCUCAAAACAGCGUGGCAAAUUGGCUCUGGCUAGACUGCC: the self-cleavage worked out at 0.09.

For the variant GGGAUAGCUCAACACAGCGUGGUAAAGUGUCUGUGGCUAGACUGCC, the self-cleavage came to 0.29.

On to GGGAGAGCUCAACAUAGCGUGGCAAAGUGGCCGUGGCUAUACUGCC, for which the self-cleavage was 0.18.

With GGGAUAGCUCAACACAGCGUGGCAAAGUGGCUGUAGCUAGACUGCC, the self-cleavage amounted to 0.03.

On to GGGAGAGCUCAACAUAGCGUGUCAAAGUGCCUGUGGCUAGACUACC, for which the self-cleavage worked out at 0.26.

Regarding GGGAAAGCUCAACACAGCGUGGCAAAAUGGCGGUGGCUAGCCUGCC, the self-cleavage stood at 0.03.
